Data: PubChem BioAssay AID1240 (Sanford-Burnham Center for Chemical Genomics, 2008)
The campaign covered roughly 50,000 compounds. About 800 (1.6%) showed an effect of 50% or more. The list shows a part of the results.

Molecular target: Bcl-2-like protein 10 (Homo sapiens) (UniProt Q9HD36)
Test: Phenotype converters, Bcl-B/TR3 peptide binding displacement, primary biochemical FP (AID 1240);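 note: 0% = Bcl-B with tracer peptide and DMSO and 100% = tracer peptide lacking Bcl-B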
Conditions: GST-Bcl-B / FITC-TR3 peptide fluorescence polarization; stronger effect = higher value; compound at 3.75 mg/L

Sequence of UniProt Q9HD36 (Q9HD36 whole entry, looked up): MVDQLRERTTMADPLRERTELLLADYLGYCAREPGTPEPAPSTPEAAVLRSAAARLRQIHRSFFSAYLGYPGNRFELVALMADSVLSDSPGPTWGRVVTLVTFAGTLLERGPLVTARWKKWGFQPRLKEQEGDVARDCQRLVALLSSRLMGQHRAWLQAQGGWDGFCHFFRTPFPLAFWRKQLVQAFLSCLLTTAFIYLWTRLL

Compound | displacement [%]
COc1ccc(S(=O)(=O)Nc2ccc(C#N)cc2)cc1 | 2.2
Cc1ccc(N(CC(=O)Nc2ccc(Oc3ccccc3)cc2)S(C)(=O)=O)cc1Cl | 3.4
CSc1nnc2c(n1)OC1(Nc3ccccc3-2)C(=O)Nc2ccccc21 (centres undefined) | 10.8
C=CCC1(N(C(C)=O)c2ccccc2)CCCCC1 | -10.4
CN=C(Nc1cccc(OC)c1)SC1CC(=O)N(c2ccccc2F)C1=O (centres undefined) | -5.3
CCOc1ccccc1NC(=O)CN1C(=O)/C(=C\c2cc(OC)c(OC)c(OC)c2)SC1=S | 36.8
O=C(/C=C/c1ccccc1)Nc1ccc2c(c1)OCCO2 | 3.5
Cc1cccc(NC(=O)c2cccc(C(=O)Nc3cccc(C)c3)n2)c1 | -5.4
CCOc1ccc(NC(=O)c2ccc(C(=O)c3ccccc3)cc2)c([N+](=O)[O-])c1 | -11.2
CN1CCN(C(=O)c2ccc(Cl)cc2[N+](=O)[O-])CC1 | 10
O=C(NCc1ccc(Cl)cc1)c1cccc(Br)c1 | 5.1
COc1cc(CC(=O)N2CCOCC2)c(Cc2cc(OC)c(OC)cc2CC(=O)N2CCOCC2)cc1OC | 5.1
O=C(O)c1ccccc1S(=O)CCO (centres undefined) | 6.8
COc1cccc(-n2c(CCN3C(=O)c4ccccc4C3=O)nc3ccccc3c2=O)c1 | 1.5
CCCCNC(=O)Cn1nc(C(F)(F)F)c(Br)c1C | 5.8
O=C1C(=O)N(c2ccccn2)C(c2cccnc2)/C1=C(/O)c1ccccc1 (centres undefined) | -14.6
Cc1ccc(C2Nc3ccccc3NC3=C2C(=O)CC(c2ccc(Cl)cc2)C3)cc1[N+](=O)[O-] (centres undefined) | -8.5
CCOC(=O)C(=O)Nc1c(O)c2ccccc2[nH]c1=O | 8.9
CN1CCN(C2=NC(=O)/C(=C/c3ccc4c(c3)OCO4)S2)CC1 | 0.1
Cc1cc2nc3s/c(=C/c4ccc5c(c4)OCO5)c(=O)n3c2cc1C | -11.4
O=C1C(=O)N(c2nncs2)C(c2ccc(Cl)cc2)/C1=C(\O)c1ccc(F)cc1 (centres undefined) | 20.8
O=C1/C(=C/c2ccccc2Cl)SC(=S)N1c1ccc(Br)cc1 | 16.9
CCCCOc1ccc(C(=O)Nc2ccc(S(=O)(=O)Nc3nccc(C)n3)cc2)cc1 | -3.3
N/C(=N/c1nc2ccccc2o1)NC(=O)c1sc2ccccc2c1Cl | 51.6
COc1ccc(Br)cc1C(=O)Nc1cccc(S(N)(=O)=O)c1 | -0.9
C/C(=N\Nc1nc(-c2ccc(C)cc2)nc2ccccc12)c1ccccc1 | -0.6
Nc1ccc2c(c1)C1C=CCC1C(c1ccc([N+](=O)[O-])cc1)N2 (centres undefined) | 2.9

Compound | displacement [%]
Cc1ccc(-c2nc3cc(Cl)ccc3o2)cc1NS(=O)(=O)c1ccccc1 | -1.5
COc1cc(C(=O)N/C(=C/c2ccc(N(C)C)cc2)C(=O)Nc2ccc(C)cc2)cc(OC)c1OC | 2.6
COc1ccc(C2C3=C(CC(C)(C)CC3=O)Nc3ccccc3N2C(=O)c2ccc(Cl)cc2)cc1OC (centres undefined) | -7.8
COc1cccc(CN2CCN(Cc3ccco3)CC2)c1 | -13.5
CCOC(=O)c1[nH]c(C)c(C(=O)O)c1C | 5.2
CC(=O)NN1C(=O)c2ccc(Oc3cccc([N+](=O)[O-])c3)cc2C1=O | 14
Cc1cc(=O)[nH]c(SCC(=O)N2CCOCC2)n1 | 9.2
O=C(NC(=S)Nc1ccc(F)cc1)c1ccc(Cl)cc1 | -3.2
COc1ccc(CC(=O)N2N=C(c3ccc(F)cc3)CC2(O)C(F)(F)F)cc1OC (centres undefined) | -11.8
Cc1ccccc1C(=O)Nc1cccc(NC(=O)c2ccccc2[N+](=O)[O-])c1 | 10.5
Cc1ccc(NC(=O)C(=O)Cc2ccc([N+](=O)[O-])cc2)c(C)c1 | -15.3
COc1ccccc1NC(=O)COc1ccc(Br)cc1C(C)(C)C | 16.1
CCOC(=O)C1NN=C(C(=O)c2ccc(OC)cc2)C1c1ccccc1Cl (centres undefined) | -7.7
COc1ccc(NC(=O)n2nc(C(F)(F)F)nc2N)cc1 | -1.2
O=C1N=C2C=CC=CN2C(=O)C1Cc1ccccc1 (centres undefined) | 6.9
CCOC(=O)C1=C(N)Oc2c(ccc3ccccc23)C1c1ccc(OC)cc1 (centres undefined) | 108
O=c1[nH]c(=S)[nH]c(O)c1C=Nc1ccccc1-c1ccccc1 | -1.6
O=C(COc1ccc(Cl)cc1Cl)Oc1ccccc1[N+](=O)[O-] | -4.5
O=C(CCN1CCCCC1)c1ccccc1 | -11
CCOC(=O)C1=C(C)NC2=C(C(=O)c3ccccc32)C1c1ccc(OCc2ccccc2)cc1 (centres undefined) | 9
COc1cc(C(=O)NCc2ccc(C(C)C)cc2)cc(OC)c1OC | -13
O=C(N=Nc1c(O)n(CN2CCCC2)c2ccc(Br)cc12)c1ccncc1 | -1
CC1(C)Cc2c(sc(NC(=O)COc3ccccc3)c2C#N)CS1 | -8.5
Cc1ccc(-c2nnc(-c3ccc(F)cc3)o2)cc1 | 0.2
Cc1ccc(NC(=O)c2ccc(C(=O)N(C(C)C)C(C)C)cc2)cc1 | 3.2
O=C(COc1ccccc1Cl)Nc1cc(Cl)ccc1C(=O)O | 21.2
CCOc1cc(/C=C2\SC(=S)N(NC(=O)c3cccc([N+](=O)[O-])c3)C2=O)ccc1O | -44.3
